# Measured values from PMC9574860, “Chemical Toolkit for PARK7: Potent, Selective, and High-Throughput” (Journal of Medicinal Chemistry, 2022).
# The whole screen tested about 7,900 compounds, of which about 400 (5.1%) showed an effect of 50% or more. Some of the results follow.
# Target: Parkinson's disease protein 7 (PARK7/DJ1) (human, UniProt Q99497)
# Assay: primary screen, percent inhibition; read as competition with a fluorescent probe by fluorescence polarization; higher = more effect of the substance
# Details: 100 µM
# Summary of the method: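 Fluorescence-polarization probe displacement (JYQ-107, 20 nM final, 2 h) after 2 h preincubation of PARK7 (0.2 μM final) with each fragment at 100 μM final. Read-out ex/em 480/520 nm; remaining activity derived from FP signal loss relative to reference controls.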
# Chain of Parkinson's disease protein 7 (PARK7/DJ1) (Q99497 whole entry, looked up): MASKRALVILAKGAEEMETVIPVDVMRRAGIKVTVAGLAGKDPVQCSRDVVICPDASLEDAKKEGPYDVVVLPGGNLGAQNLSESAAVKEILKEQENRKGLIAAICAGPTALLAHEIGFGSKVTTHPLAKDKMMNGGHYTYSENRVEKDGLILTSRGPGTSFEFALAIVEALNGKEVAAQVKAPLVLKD
row,Compound,Inhibition %
1,C=CC(=O)N1CCc2nc(-c3ccccc3)sc2C1,16.7%
2,O=C1OCCC1Sc1nnc2sc3ccccc3n12 (centres unmarked),0.305%
3,CC1(c2ccc(Cl)cc2)NC(=O)N(CCS(=O)(=O)F)C1=O (centres unmarked),31.9%
4,C=CC(=O)N1CCN(C(=O)Cc2cccc(Cl)c2)CC1,8.81%
5,O=C1NC(=O)C(CCS(=O)(=O)F)N1 (centres unmarked),97.6%
6,C=CC(=O)NCCc1ccc2c(c1)OCO2,6.32%
7,O=C(CCl)N1CCCC1c1ccsc1 (centres unmarked),6.97%
8,N#CC(=Cc1ccco1)C(=O)N1CCc2ccccc21,-27.4%
9,C=CC(=O)N1CCC(n2c(=O)[nH]c3ccccc32)CC1,15.7%
10,CCc1nc(C#N)cc(NCC2CCSCC2)n1,3.86%
11,N#Cc1cccc(-n2cccn2)n1,16.1%
12,O=C(CCl)Nc1ccc(N2CCCCCC2)cc1,99.5%
13,N#CC(=Cc1ccc(C(=O)O)cc1)c1ccccn1,8.94%
14,O=C1OCCC1Sc1nnc(-c2ccccc2F)[nH]1 (centres unmarked),9.37%
15,Cl.N#Cc1ncn(CCN)n1,7.79%
16,CCc1nc(C#N)cc(NC2CSC2)n1,-3.02%
17,COCCn1c(S)nc2ncccc2c1=O,6.27%
18,CC(Cl)c1nc2scc(-c3ccco3)c2c(=O)[nH]1 (centres unmarked),3.05%
19,CS(=O)(=O)CCN(C#N)c1ccccc1,5.26%
20,CC1(C)OB(c2ccnn2C2CCC2)OC1(C)C,23.7%
21,N#CC(=Cc1cc2cc(F)ccc2o1)C(=O)O,-2.97%
22,Cc1ccc(S(=O)(=O)n2ccnc2)cc1,11.3%
23,NC(=O)C1CCN(C(=O)C=Cc2cccnc2)CC1,6.12%
24,Clc1cccc(C2CO2)c1 (centres unmarked),14.4%
25,Cc1ccc(NC2C=CS(=O)(=O)C2)cc1 (centres unmarked),12.7%
26,C=CC(=O)N1CC2(CCC2)C1c1ccncc1 (centres unmarked),7.42%
27,O=C(CCl)Nc1nc(-c2cccs2)cs1,11.6%

row,Compound,Inhibition %
1,C=CC(=O)N1CCCC(c2ccc(F)c(F)c2)C1 (centres unmarked),9.29%
2,Cc1cc(C)nc(S(=O)(=O)F)n1,55.9%
3,COc1ccc(C2CC(C)N(C3CCOC3=O)C2)cc1 (centres unmarked),13.6%
4,Cc1cccc(C(=O)NNC(=O)CCl)c1,1.98%
5,C=CC(=O)N1CCCc2ccccc21,9.75%
6,C=CC(=O)NCc1ccc(C)s1,1.04%
7,C=CC(=O)NC1CCN(c2ccn(C)n2)C1 (centres unmarked),13.8%
8,C=CC(=O)N1CCN(C2CCN(Cc3ccccc3)C2)CC1 (centres unmarked),15.2%
9,CC1(C)OB(c2ccc(N)cc2)OC1(C)C,5.89%
10,CN(C)Cc1ccc(B2OC(C)(C)C(C)(C)O2)s1,5.59%
11,N#Cc1ccc(OC(F)F)cn1,10.9%
12,C=CC(=O)N1CCC(c2nc3ccccc3s2)CC1,8.38%
13,CCN1C(=O)SC(CC(=O)O)C1=O (centres unmarked),3.41%
14,C=CC(=O)N1CCOCC1c1cccc(F)c1 (centres unmarked),2.96%
15,N#Cc1cnc(S)nc1O,6.34%
16,C=CC(=O)NCCc1nc2ccc(F)cc2n1C,3.72%
17,CC(C)C(NC(=O)CCl)c1ccc2c(c1)OCCO2 (centres unmarked),5.63%
18,Cc1ccc(F)c(N(C#N)CCCN2C(=O)CNC2=O)c1,-0.594%
19,N#CC(=Cc1cccc(O)c1)c1ccccn1,45.1%
20,CCN(CC1COc2ccccc2O1)C(=O)CCl (centres unmarked),21.2%
21,O=S(=O)(F)c1coc2ccccc12,10.5%
22,CC(C)C(NC(=O)CCl)c1ccccc1 (centres unmarked),9.18%
23,N#Cc1nccn1Cc1cc(F)cc(F)c1,5.08%
24,C=CC(=O)NCc1ccnc(N2CCN(C)CC2)n1,8.25%
25,CC1CCCCN1C(=O)Cn1cnc(C#N)n1 (centres unmarked),7.59%
26,CNC(=O)Oc1cccc(O)c1,37.6%
27,COc1ccc(CCn2cnc(C#N)n2)cc1,2.16%

row,Compound,Inhibition %
1,O=C(NCCO)Oc1ccccc1,10.5%
2,CNC(=O)c1cc(C(=O)CCl)cn1C,5.61%
3,O=C1OCCC1N1CCN(C(=O)c2cccc(F)c2)CC1 (centres unmarked),8.98%
4,O=C(CCl)NCCOc1cccc(Cl)c1,17.8%
5,CC(CC#N)Sc1ccccc1NC(=O)CCl (centres unmarked),10.5%
6,N#CC1(NS(=O)(=O)c2ccc(S(=O)(=O)F)cc2)CCC1,31.4%
7,C=CC(=O)Nc1ccc2c(c1)CC(=O)N2,12.5%
8,CC1(C)OB(c2cccc(O)c2)OC1(C)C,5.19%
9,Cn1nc2ccccc2c1C#N,4.09%
10,Cc1nn(C)c2ncc(SC(=O)N(C)C)cc12,3.99%
11,C=CC(=O)NCCc1nc2ccccc2o1,3.17%
12,O=C(CCl)Nc1cc(-n2nnnc2C2CC2)ccc1F,2.27%
13,CC(Cl)Cc1cc2ccc(O)cc2oc1=O (centres unmarked),12.3%
14,O=C(CCl)Nc1ccc(Br)cn1,2.66%
15,N#CSc1c(Cl)nc2sccn12,13.7%
16,C=CC(=O)N1CCCC1c1c(C)nn(CC(C)C)c1Cl (centres unmarked),3.35%
17,Cc1nc(C2CC2)nc(S)c1C#N,2.7%
18,O=C(CCl)Nc1ccccc1O,21.3%
19,N#Cc1c(N2CCCC(C(F)(F)F)C2)nc2ccccn12 (centres unmarked),-0.359%
20,O=c1onc(-c2ncccn2)n1Cc1ccccc1F,1.26%
21,CN(CCS(=O)(=O)F)S(=O)(=O)c1ccc(F)cc1,11%
22,N#Cc1cnc2ccccc2n1,8.61%
23,CCc1nc(C)cn1S(=O)(=O)c1ccc(C(C)C)cc1,12.7%
24,O=C(c1cc(S(=O)(=O)F)c[nH]1)N1CCN(C(=O)c2ccn[nH]2)CC1,6.64%
25,CCC1(O)CCN(C(=O)c2ccc(B(O)O)c(F)c2)CC1,7.89%
26,O=C(CCl)N(C1CCCCC1)C1CCS(=O)(=O)C1 (centres unmarked),1.27%
